The values below come from PubChem BioAssay AID1508623 (National Center for Advancing Translational Sciences (NCATS), 2021).

The whole screen tested about 48,000 compounds, of which about 450 (0.94%) were called active. Another 19% or so got no clear call; they are omitted. Calls follow the shape of the dose curve; as a rule, active = well fitted inhibition curve with a large enough effect; inconclusive = small, poorly fitted or top-dose-only effect; inactive = no such curve, though single readings can be large or run the other way. The list shows a part of the results.

A short description of the assay: Primary qHTS for Identification of Small Molecule Inhibitors of Huntingtin Promoter Activity. Also: nearly all actives have a fitted effect of over 50% in size. As to conditions: HEK293 HTT promoter firefly luciferase reporter (activity 0% = vehicle and -100% = no light), 24 h; series mostly up to 57.5 µM; activity change, negative = inhibition: at the top concentration. The procedure, abridged: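 HEK293 luciferase promoter-reporter cells (2,500/well) plated 24 h, then compounds added at up to 57.5 uM final for 24 h at 37 °C. Firefly luminescence by Dual-Glo, normalized to vehicle (0%) and zero RLU (-100%).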
Regarding `Cn1c(=O)c(=O)n(C)c2cc(N3CCOCC3)c(NS(=O)(=O)c3ccc(Cl)cc3)cc21`, the “activity change, negative = inhibition” value was inactive: -0.838%.
Take `CCc1ccc(S(=O)(=O)c2cn(CC(=O)Nc3ccc(C)cc3)c3ccccc3c2=O)cc1`: the “activity change, negative = inhibition” value was inactive: -22.6%.
Take `COc1cccc(C(c2sc3nc(-c4ccco4)nn3c2O)N2CCC(O)CC2)c1` (configuration not stated): the “activity change, negative = inhibition” value was inactive: 5.2%.
For `CCOc1ccc(CCNC(=O)c2ccc3c(Cl)c4c(nc3c2)CCCC4)cc1`, the “activity change, negative = inhibition” value was inactive: -16.5%.
For `O=S(=O)(NCCc1nnc2ccc(SCc3ccc(Cl)cc3Cl)nn12)c1ccccc1` the value was inactive: -0.504%.
As for `CCOc1ccccc1NC(=O)c1sc2nc3n(c(=O)c2c1C)CCCCC3`, the “activity change, negative = inhibition” value was inactive: 2.51%.
For `Cc1cc(C)cc(NC(=O)CSc2nc3c(oc4ccccc43)c(=O)n2-c2ccccc2F)c1` the value was inactive: -9.21%; for `COc1ccc2cc3cc(C(=O)NCc4ccc(C)cc4)oc3nc2c1`, inactive: -10.4%; for `COc1ccc(F)cc1S(=O)(=O)NCCc1c(C)[nH]c2c(Cl)cccc12`, inactive: -22%.
For `CCc1cccc(OCC(=O)Nc2ccc(S(=O)(=O)Nc3cc(C)nc(C)n3)cc2)c1`, the “activity change, negative = inhibition” value is inactive: -27.3%.
Turning to `COc1ccc(Nc2cc(C(=O)NCCc3ccc(C)cc3)c3ccccc3n2)c(OC)c1`, the “activity change, negative = inhibition” value is inactive: 17.1%.
For the molecule `CCOC(=O)N1CCC(NC(=O)c2c(C)nn(-c3ccc(C)cc3)c2-n2cccc2)CC1`, the “activity change, negative = inhibition” value is inactive: -19.8%.
`CCOCCCNC(=O)C1CCN(c2nn3cc(-c4ccc(F)cc4)nc3s2)CC1`: the “activity change, negative = inhibition” value is inactive: -9.81%.
For the molecule `CCCCOc1ccc(C(=O)Nc2nnc3n2CCS3)cc1`, the “activity change, negative = inhibition” value is inactive: -5.03%.
Next, `CCC(C(=O)OCCOCCN(CC)CC)c1ccccc1` (configuration not stated): inactive: -0.602%; `CCOc1ccc(-c2nn(CC(=O)NC3CCCCC3)c3c2cnc2ccc(C)cc23)cc1`: inactive: 13.9%; `CCCn1c2ccccc2c2cnn(CC(=O)NCCc3ccc(OCC)cc3)c(=O)c21`: inactive: -4.04%.
`COc1cc(-c2noc(-c3ccc(NCc4ccccc4)c([N+](=O)[O-])c3)n2)cc(OC)c1OC`: the “activity change, negative = inhibition” value is inactive: -6.19%.
In the case of `CCOc1ccc(NC(=O)CCNS(=O)(=O)c2ccc3c(c2)oc(=O)n3C)cc1`, the “activity change, negative = inhibition” value was inactive: -9.82%.
Next, `COc1ccc(NC(=O)Cn2nnc3sc4c(c3c2=O)CCC(C)C4)c(OC)c1` (configuration not stated): inactive: -4.02%; `COc1ccccc1CNC(=O)c1ccc2c(c1)N(Cc1cccc(C)c1)C(=O)c1ccccc1S2(=O)=O`: inactive: -11.9%.
With `COc1ccc(Cl)cc1NC(=O)c1sc(-n2nc(C)c(Cc3ccccc3)c2C)nc1C`, the “activity change, negative = inhibition” value is inactive: 2.59%.
In the case of `Cc1ccc(C)c(Cn2c3ccccc3c3cnn(CC(=O)NCCC4=CCCCC4)c(=O)c32)c1`, the “activity change, negative = inhibition” value is inactive: 0%.
As for `CCn1c(=O)c2cc(C(=O)N(CCN(C)C)Cc3ccccc3)sc2c2ccccc21`, the “activity change, negative = inhibition” value was inactive: -6.79%.
Turning to `Cc1nnc(SCc2ccccc2)c2cc3sccc3n12`, the “activity change, negative = inhibition” value is inactive: 36.6%.
For the molecule `CCOc1cc(C(=O)N2CC(=O)Nc3ccc(C)cc3C2c2ccccc2)cc(OCC)c1OCC` (configuration not stated), the “activity change, negative = inhibition” value is inactive: -4.62%.
Take `COCCCNC(=O)CSC1=Nc2ccccc2C2=NC(CCC(=O)NCc3ccccc3OC)C(=O)N12` (configuration not stated): the “activity change, negative = inhibition” value is inactive: -24.8%.
Turning to `COc1ccc(N2CCN(c3oc(/C=C/c4ccc(F)cc4)nc3C#N)CC2)cc1`, the “activity change, negative = inhibition” value is inactive: 38.1%.
As for `CCc1ccc(CN(Cc2ccco2)C(=O)c2ccc(OC)cc2)cc1`, the “activity change, negative = inhibition” value is inactive: -14.6%.
Consider `CCc1ccc(CNC(=O)CCC(=O)N2Cc3cccc(OC)c3Oc3ncccc32)cc1`, for which the “activity change, negative = inhibition” value is inactive: -5.83%.
Take `COC(=O)c1cccnc1`: the “activity change, negative = inhibition” value was inactive: -5.31%.
For `O=C(Nc1cccc(C(=O)OCc2cc(=O)n3nc(C4CC4)sc3n2)c1)c1ccccc1`, the “activity change, negative = inhibition” value was inactive: -7.3%.
Take `Cc1cc(C)cc(OC(C)C(=O)Nc2nonc2-c2ccc(Br)cc2)c1` (configuration not stated): the “activity change, negative = inhibition” value is inactive: -18.2%.
Take `Cc1ccccc1NC(=O)CSc1nnc(C)c(=O)[nH]1`: the “activity change, negative = inhibition” value was inactive: -14.3%.
Regarding `O=C(NCc1ccco1)C1CCN(C(=O)N2CCOc3ccccc32)CC1`, the “activity change, negative = inhibition” value was inactive: 2.04%.
Regarding `Nc1c(-c2nc(-c3cccs3)no2)nnn1-c1ccccc1Cl`, the “activity change, negative = inhibition” value is inactive: 53.7%.
For `Cc1ccc(Cl)cc1N(C)C(=O)Cn1nc(Cc2cccnc2)c2ccccc2c1=O`, the “activity change, negative = inhibition” value is inactive: -22%.
Consider `COCCn1c(CNC(=O)c2ccc(C)cc2)nc2cccnc21`, for which the “activity change, negative = inhibition” value was inactive: 3.96%.
For the molecule `COc1ccccc1-c1nc2c3c(-c4ccccc4)c(-c4ccccc4)oc3ncn2n1`, the activity change, negative = inhibition is inactive: 41.9% [at 11.5 µM].
Take `Cc1ccccc1CS(=O)(=O)CC1Nc2ccc(C(=O)NCc3ccc(Cl)cc3)cc2NC1=O` (configuration not stated): the “activity change, negative = inhibition” value was inactive: -18.8%.
As for `CCOc1ccc(-c2nonc2NC(=O)c2oc3c(C)c(C)ccc3c2C)cc1OCC`, the “activity change, negative = inhibition” value is inactive: -30.4%.
Next, `Cc1ccc(C)c(Cn2c3ccccc3c3cnn(CC(=O)NCCCc4ccccc4)c(=O)c32)c1`: inactive: 10%.
Regarding `COc1ccccc1N1CCN(C(=O)Cn2c(=O)n3nc(-c4cccc(C)c4)nc3c3ccccc32)CC1`, the “activity change, negative = inhibition” value was inactive: -16.5%.
As for `CCCSc1ncc(Cl)c(C(=O)Nc2c(C(=O)c3ccc(F)cc3)oc3ccccc23)n1`, the “activity change, negative = inhibition” value is inactive: -11.3%.
Next, `CCN(C(=O)Cn1nc(Cc2ccncc2)c2ccccc2c1=O)c1cccc(C(F)(F)F)c1`: inactive: -0.215%.
Next, `CC(C)Cn1c(=O)c2ccccc2n2c(CCC(=O)Nc3ccc(F)c(F)c3)nnc12`: inactive: 6.31%; `O=C(NCCc1ccccc1)c1ccc2c(c1)CCN2S(=O)(=O)c1ccccc1`: inactive: -20.6%.
As for `CC(C)CSc1ccccc1NC(=O)c1sc2nc(-c3ccncc3)ccc2c1N`, the “activity change, negative = inhibition” value was inactive: -9.84%.
Consider `CCOC(=O)c1c(NC(=O)C(C)Oc2ccc(Cl)c(C)c2)sc2c1CCCC2` (configuration not stated), for which the “activity change, negative = inhibition” value is inactive: -12.1%.
Consider `O=C(Cn1cc(S(=O)(=O)Cc2ccccc2F)c2ccccc21)NCc1ccccc1Cl`, for which the “activity change, negative = inhibition” value was inactive: -2.42%.
For `COc1ccc(NC(=O)CCN2CCN(CCO)CC2)cc1` the value was inactive: -22.7%; for `CCN(c1cc(C)cc(C)c1)S(=O)(=O)c1nnc(NC(=O)c2ccco2)s1`, inactive: -17.8%; for `O=C(O)CCCCC(=O)O`, inactive: 3.6%.
For `CCOc1ccc(C(=O)Nc2ccc(-c3nc4ccccc4s3)c(C)c2)cc1OCC` the value was inactive: 57.4%.
For `Cc1cccc(N2CCN(C(=O)c3ccc(NC(=O)c4nsc5ccccc45)cc3)CC2)c1C` the value was inactive: -22%; for `Cc1ccc(NC(=O)Cn2nnc(-c3nc(-c4ccc(Cl)cc4)no3)c2N)cc1C`, inactive: 2.33%.
Take `CCc1nc2c(cnn2-c2ccc(Cl)cc2)c(=O)n1-c1ccc(OC)c(Cl)c1`: the “activity change, negative = inhibition” value is inactive: -9.58%.
Regarding `Cc1ccc(OCC(=O)Nc2cc(-c3cccc(C)c3)nn2-c2ccccc2)cc1`, the “activity change, negative = inhibition” value was inactive: 30%.
For `CCOc1ccccc1C(=O)Nc1cc2c(cc1N1CCOCC1)n(C)c(=O)n2C` the value was inactive: -5.36%; for `Cc1ccc(CCNC(=O)c2ccc3c(c2)c(C)c(C)n3Cc2ccccc2)cc1`, inactive: -10.9%; for `NC(=S)N/N=C/c1cccnc1`, inactive: 9.95%.
For `COc1ccc(-n2c(=O)c3sc4ccccc4c3n(CC(=O)NCc3ccccc3)c2=O)cc1` the value was inactive: -6.52%.
